Values joined by “and” are separate entries in the source; they are usually repeats but may differ in a detail not shown here. Equal entries are not always repeated. Among all 390,000 compounds or so, about 2,200 (0.56%) were called active. The inconclusive results got no clear call from the source; some entries with a clear call stand among them for comparison. Calls come from the whole dose curve; as a rule, active = well fitted inhibition curve with a large enough effect; inconclusive = small, poorly fitted or top-dose-only effect; inactive = no such curve, though single readings can be large or run the other way. A potency beside an inconclusive call is a rough fit, not a confirmed value.
Each compound was assayed against Chromobox protein homolog 1 (Homo sapiens) (UniProt P83916) (assay: HTS for Inhibitors of HP1-beta Chromodomain Interactions with Methylated Histone Tails). Conditions: AlphaScreen HP1-beta / biotin-H3K9me3 peptide binding; series mostly up to 114 µM.
UniProt P83916, sequence (P83916 whole entry, looked up): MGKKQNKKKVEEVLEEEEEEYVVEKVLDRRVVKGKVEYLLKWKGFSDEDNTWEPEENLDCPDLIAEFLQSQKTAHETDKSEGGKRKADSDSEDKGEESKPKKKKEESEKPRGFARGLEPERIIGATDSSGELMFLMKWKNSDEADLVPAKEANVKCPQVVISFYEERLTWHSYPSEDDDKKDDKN
Method in brief: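 HP1-beta protein (50 nM final) preincubated 30 min at room temperature with biotinylated H3(1-18)K9me3 peptide (50 nM) in PBS pH 7.4, 0.01% Tween-20, then compound added for 30 min. AlphaScreen streptavidin donor/nickel chelate acceptor beads (10 ug/mL final), 30 min dark, luminescence read.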
Note: nearly all actives have a fitted effect of over 70% in size.
Potency is the fitted concentration of half-maximal effect; tags give direction and shape of the fitted curve.

SMILES | Potency
Cn1c(=O)n(CCc2ccccc2)c(=O)c2c1nc1n2CCCN1Cc1ccccc1 | inconclusive: 50.1 µM [inhibitor, partial curve]
Cc1ccc(-c2nnc(SCC(=O)NCc3ccccc3)nc2-c2ccc(C)cc2)cc1 | inconclusive: 50.1 µM [inhibitor, partial curve, poor fit]
O=C(O)c1ccc(COc2ccccc2/C=C2/NC(=O)N(c3cccc(Cl)c3)C2=O)cc1 | inconclusive: 70.8 µM [inhibitor, single point]
CCCCn1c(NC(=O)c2ccccc2)c(C#N)c2nc3ccccc3nc21 | inactive
COc1ccc(CCNc2ccc(S(=O)(=O)N3CCCC3)cc2[N+](=O)[O-])cc1 | inconclusive: 44.7 µM [inhibitor, partial curve]
CCCC(=O)Nc1ccc(Cl)c(NC(=O)CC)c1 | inconclusive: 39.8 µM [inhibitor, single point]
Cc1cc(NC(=O)Cn2nc(-c3ccccc3F)ccc2=O)ccc1-n1cnnn1 | inactive
Cc1ncc(CO)c(/C=N/Nc2cccc(Cl)n2)c1O | inactive
CCC(=NCc1ccc(Cl)c(Cl)c1)c1nc(-c2ccco2)oc1O | inconclusive: 28.2 µM [inhibitor, single point]
COc1ccc(OC)c(NC2c3ccccc3C(=O)N2Cc2ccc3c(c2)OCO3)c1 (configuration not stated) | inconclusive: 31.6 µM [inhibitor, partial curve]
COCCNC(=O)Cn1cc(/C=N/NC(=O)c2ccc(Oc3ccc(O)cc3)cc2)c2ccccc21 | inconclusive: 56.2 µM [inhibitor, single point]
Cc1ccc(C2CC(=O)NC(SCc3ccccc3)=C2C#N)o1 (configuration not stated) | inactive
COc1ccccc1NS(=O)(=O)c1cc(NC(=O)c2cc[n+]([O-])cc2)ccc1N1CCCC1 | inconclusive: 10 µM [inhibitor, full curve]
CCc1nn2c(=O)cc(COC(=O)C3CCCCC3)nc2s1 | inactive
COc1ccc2cc1Oc1ccc(cc1)C[C@H]1c3c(cc(OC)c4c3Oc3c(ccc5c3[C@H](C2)N(C)CC5)O4)CCN1C | inconclusive: 28.2 µM [inhibitor, partial curve]
Cc1nc2scc(-c3ccccc3)c2c(=O)n1N=C1C=CC(=O)C=C1 | active: 8.91 µM
O=C(Nc1cccc(Cl)c1)c1ccc(NCCCN2CCOCC2)c([N+](=O)[O-])c1 | inconclusive: 44.7 µM [inhibitor, partial curve, poor fit]
CCOc1ccc(C(=O)Nc2nnc(NC(=S)Nc3ccccc3)s2)cc1 | inactive
COc1cccc(Nc2n[nH]c(=S)s2)c1 | inconclusive: 17.8 µM [inhibitor, full curve, poor fit]
CCOc1ccc(NC(=O)Cn2cnc3c(oc4ccccc43)c2=O)cc1 | inconclusive: 44.7 µM [inhibitor, partial curve]
Cc1cc(C(=O)OCC(=O)Nc2c(F)cccc2F)c(C)n1-c1ccccc1 | inconclusive: 8.91 µM [inhibitor, full curve, poor fit]
C=CCCN(Cc1ccc(OC)cc1)S(=O)(=O)c1ccccc1Br | inactive
CCOC(=O)c1ccc2[nH]c3c(c2c1)CCCC3 | inconclusive: 70.8 µM [inhibitor, partial curve]

SMILES | Potency
CCCn1cc(S(=O)(=O)c2cc(C)ccc2C)c(=O)c2cc(F)c(N3CCCCCC3)cc21 | inactive
Cc1ccc(S(=O)(=O)N2CCCC(C(=O)N3CCN(C)CC3)C2)cc1 (configuration not stated) | inconclusive: 44.7 µM [inhibitor, partial curve, poor fit]
CCOC(=O)/C(=C\c1ccc(Cl)cc1)c1nc2sc(C)c(C)c2c(=O)[nH]1 | inconclusive: 28.2 µM [inhibitor, partial curve, poor fit]
O=c1cc(-c2ccccc2)ss1 | inconclusive: 12.6 µM [inhibitor, partial curve]
CC(NC(=O)C1CCN(S(=O)(=O)c2ccc3c(c2)oc(=O)n3C)CC1)c1ccccc1 (configuration not stated) | inactive
Cc1c(C(=O)NCC(c2ccco2)N(C)C)oc2c(Cl)cccc12 (configuration not stated) | inconclusive: 89.1 µM [inhibitor, partial curve, poor fit]
CC(CCc1ccc(O)cc1)N(C)CCc1ccccc1 (configuration not stated) | inconclusive: 44.7 µM [inhibitor, partial curve, poor fit]
Nc1nc(=S)c2ncn(C3CCCC3)c2[nH]1 | inconclusive: 79.4 µM [inhibitor, single point]
CC(C)c1ccc(N2C(=O)CC(NNC(=O)c3cccnc3)C2=O)cc1 (configuration not stated) | inactive
O=S(=O)(Nc1cccc(F)c1)c1ccc2[nH]c3c(c2c1)CCCCC3 | inconclusive: 44.7 µM [inhibitor, partial curve, poor fit]
COc1cc(CNc2ccc(O)cc2)cc(Br)c1OCc1ccccc1F | inconclusive: 25.1 µM [inhibitor, full curve, poor fit]
NC(=O)c1ccsc1NC(=O)COC(=O)COc1ccccc1F | inactive
Nc1ccc(N=Nc2ccc(O)cc2)c(N)n1 | inconclusive: 56.2 µM [inhibitor, single point]
O=C(/C=C/c1ccc(N2CCCCC2)c([N+](=O)[O-])c1)c1ccc(S(=O)(=O)N2CCCC2)cc1 | inconclusive: 7.08 µM [inhibitor, full curve]
CCOC(=O)CC1=NN(c2ccccc2)C(=O)/C1=C\c1ccc(OC)cc1OC | active: 15.8 µM
Cc1ccc(S(=O)(=O)N(C)C)cc1NC(=O)c1cc(C(C)(C)C)nn1Cc1ccccc1 | inactive
CCCN(CCO)CCCc1ccccc1 | inconclusive: 56.2 µM [inhibitor, partial curve, poor fit]
CCN(C(=O)COC(=O)CCc1ccccc1OC)c1c(N)n(Cc2ccccc2)c(=O)[nH]c1=O | inactive
COc1cc(N2CCCC2)c(OC)cc1/C=C(/C#N)c1cccc(Br)c1 | active: 35.5 µM
CC(C)(C)c1ccc(C(=O)/C(C#N)=C/c2cccs2)cc1 | inconclusive: 44.7 µM [inhibitor, partial curve, poor fit]
O=C1C(c2ccccc2)SC(=Nc2ccccc2)N1S(=O)(=O)c1ccccc1 (configuration not stated) | inconclusive: 10 µM [inhibitor, full curve]
CC(=O)NCc1ccc(C(=O)CSc2nnc(C3CC3)n2C2CC2)cc1 | inactive
COc1cc(NC(=O)CN2CCN(Cc3ccc4c(c3)OCO4)CC2)cc(OC)c1 | inconclusive: 17.8 µM [inhibitor, full curve]

SMILES | Potency
Cc1ccc(-c2nc(N)sc2-c2ccccc2)cc1C | inconclusive: 25.1 µM [inhibitor, partial curve, poor fit]
CCOC(=O)c1c(-c2ccc(F)cc2)csc1NC(=O)C1CC=CCC1C(=O)O (configuration not stated) | inconclusive: 12.6 µM [inhibitor, full curve]
CCN(CC)CCOCCOc1ccccc1F | inactive
CN1CCN(C(=O)c2sc(=S)n(-c3ccccc3)c2N)CC1 | inconclusive: 11.2 µM [inhibitor, partial curve]
C/C(=N/N=C/c1ccc(N(C)C)cc1)c1ccccc1 | inconclusive: 7.08 µM [inhibitor, full curve, poor fit]
CC(C)C1N=C2c3ccccc3N=C(SCC(=O)NCc3ccc(F)cc3)N2C1=O (configuration not stated) | inactive
O=C(c1ccc([N+](=O)[O-])cc1)N1CCN(Cc2ccccc2[N+](=O)[O-])CC1 | inconclusive: 15.8 µM [inhibitor, full curve]
O=C(CCn1cnc(-c2ccccc2)c1-c1ccccc1)N/N=C/c1ccc(O)cc1 | inconclusive: 44.7 µM [inhibitor, partial curve]
CCN=C1NN=C(c2cc(C)n(CCc3ccccc3)c2C)CS1 | inconclusive: 22.4 µM [inhibitor, partial curve, poor fit]
CC(O)CNCCOc1ccccc1-c1ccccc1 (configuration not stated) | inconclusive: 56.2 µM [inhibitor, single point]
CCN1C[C@@H]2[C@@H]3C(=O)N(C)C(=O)[C@@H]3[C@](CC)(C1=O)N2C(=O)c1ccccc1 | inactive
COc1ccc(-c2c(C)nn3c(-c4ccccc4)cc(-c4ccccc4)nc23)cc1OC | inconclusive: 3.98 µM [inhibitor, full curve]
Clc1ccc(CSc2ccc(-c3cccnc3)nn2)cc1 | inconclusive: 28.2 µM [inhibitor, single point]
COc1ccc(N2CCCC2)c(NC(=O)COc2ccccc2)c1 | inconclusive: 79.4 µM [inhibitor, single point]
CCN(CC)c1ccc(NC(=O)CN2CCN(CC(=O)Nc3ccccc3OC)CC2)cc1 | inactive and inconclusive: 44.7 µM [inhibitor, partial curve]
O=C(C1COc2ccccc2O1)N1CCc2ccccc21 (configuration not stated) | inconclusive: 56.2 µM [inhibitor, partial curve]
Cc1cccc(CN2CCSCC2)c1 | inconclusive: 20 µM [inhibitor, full curve]
Clc1ccc(NNc2ccnc3cc(Cl)ccc23)cc1 | inconclusive: 5.01 µM [inhibitor, full curve]
O=C(CSc1nc(-c2ccccc2)c(-c2ccccc2)o1)N1CCOCC1 | inconclusive: 25.1 µM [inhibitor, partial curve, poor fit]
Cc1cccc(C)c1OCCCN1CCCC1 | inconclusive: 70.8 µM [inhibitor, partial curve, poor fit]
O=C(CCS(=O)(=O)c1ccccc1)Nc1ccc(Cl)cn1 | inconclusive: 89.1 µM [inhibitor, partial curve, poor fit]

Reference: PubChem BioAssay AID540317 (National Center for Advancing Translational Sciences (NCATS), 2011)
